Source: the supplement of paper PMC10126150
Values marked as one replicate rest on one cluster of the flow cell; about a third of the high ones do not repeat.

What follows are sequences tested on ATP (assay: switch fluorescence ratio, 500 uM ATP over buffer (Cy3 cluster intensity, sum of 5 cycles each) (fold (ratio)); higher = stronger signal-on switching upon ATP binding; sequences stand for … in TCGTCGGCAGCGTCAGATGTGTATAAGAGACAGTTTTTTTTTTTTTTTTTTTTTTTTT…TC). Details: aptamer strand: ATP DNA aptamer (quencher-CACCTGGGGGAGTATTGCGGAGGAAGG + anchor), 100 nM annealed; ATP concentration: 500 uM; one replicate.
Outline: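 After annealing to 100 nM quencher-labelled ATP aptamer, Cy3-labelled switching-strand clusters on a modified Illumina MiSeq flow-cell were imaged in selection buffer. A second image followed after 15 min with 500 uM ATP at 22 °C, and five such buffer/ATP cycles were done, each separated by NaOH stripping and re-annealing. The fluorescence ratio, averaged per switch-domain sequence, is summed target-cycle over summed buffer-cycle Cy3 intensity per cluster, with clusters outside 100-1000 RFU excluded.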
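Note: ATP exposure 15 min at 22 °C before imaging.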

Row | Sequence | switch fluorescence ratio
1 | CGTATTCGAA | 0.99
2 | TCGGAAAACT | 1.11
3 | TGGGCATTGA | 0.891
4 | GGTTTACCCA | 0.959
5 | TCGTTTACTG | 0.957
6 | AATTGCCTTA | 1.01
7 | CTTTTGGAGG | 0.987
8 | ATCGCCTAAA | 1.01
9 | TGGTATATGG | 0.954
10 | ACTCTCATCG | 1.06
11 | CGGGCACGTT | 1
12 | TAATATCAGT | 0.991
13 | AACTAGGA | 1.02
14 | CACGGCTTAC | 2.29
15 | AACGAGTACC | 1.07
16 | TCATATTTTG | 0.996
17 | CCATCCTGTA | 1.03
18 | AGTATCATTG | 0.988
19 | TTAGATTGGC | 0.997
20 | TTATAGACAT | 1.04
21 | GTGTGATAAA | 1.02
22 | TGCTAGACCG | 1.04
23 | TGTTTACCAC | 0.985

Row | Sequence | switch fluorescence ratio
24 | GGGGTCTCT | 1.02
25 | AGGAGAAAGA | 1.09
26 | TTACAGTATG | 1.1
27 | ATGTCATTAG | 1
28 | TAATTCGCCC | 1.03
29 | ACCCATCTAT | 1.06
30 | TCATTCTAAG | 0.985
31 | TCGATCCGGG | 0.982
32 | GTCCGTACTG | 1.06
33 | TAAGGTTATT | 0.978
34 | TTCATAAGGG | 0.943
35 | GGGCTGGGAA | 0.952
36 | ATGATGAGCT | 0.979
37 | AGGTAGACGA | 1.02
38 | TTCAGGTCGA | 1.05
39 | CTATAAGAAG | 0.999
40 | TGGCTTTTGC | 0.948
41 | CCCTTGCTGG | 0.974
42 | GGTACGACAG | 1.03
43 | GAATGGAATA | 1
44 | GAGCATCA | 0.997
45 | CTCCGGCCAG | 1.71
46 | AACTTCTACC | 1.14

Row | Sequence | switch fluorescence ratio
47 | GCCCCCCGGG | 1.29
48 | CATCGTAGTT | 1.03
49 | CGAGTCTGTA | 0.997
50 | TTCAGTACGA | 1
51 | GCGATGTGTG | 1
52 | AAGCCAGGCA | 1.04
53 | ATGCGGAGG | 1.04
54 | TATGATATG | 0.987
55 | CATTCGGAAA | 1.17
56 | CACTGTTCGG | 1.04
57 | GTGGGGTTG | 0.964
58 | CTAAAGCTGG | 1
59 | TTGAGTGATT | 1.01
60 | GATGGGTCCT | 0.968
61 | CAAATCGGTG | 1
62 | CTCAGGTTAC | 1.67
63 | CCAGGCGTTT | 1.04
64 | ACTCGACTGG | 1.05
65 | CAGGGCCCCT | 1.03
66 | CGGGCTAGC | 1.03
67 | CGGTTATGAT | 0.971
68 | CGGCATGCAA | 1.55
69 | ACTAAATGG | 1.03

Row | Sequence | switch fluorescence ratio
70 | CTTGATTAAC | 1.08
71 | CATATAAAGG | 1.01
72 | TCCAACTTCT | 1.02
73 | TATGGTAAAG | 1.02
74 | TCTTATTACC | 1.03
75 | TCACGCATGG | 1.3
76 | TTGAGAGGGC | 0.965
77 | GAGGTGCGTG | 0.968
78 | AGTTCAGCTT | 0.998
79 | CCGTTGCAGT | 2.13
80 | GTGTGGGTGC | 1.04
81 | TACTCAGCTT | 1.41
82 | ACTTGCGTGG | 0.997
83 | GGAGTTCGGT | 0.995
84 | TAAATCCACT | 1.09
85 | CCCGTTTTGG | 0.961
86 | TGCACTTTCT | 0.977
87 | CTTATGACGA | 1.01
88 | AGGCCCCTGT | 1
89 | GAACTGTCAT | 0.971
90 | GGGATTGCGT | 1.01
91 | TTGGCGTTAT | 1.01
92 | CTCACAACGG | 1.02

Row | Sequence | switch fluorescence ratio
93 | GATTCTTTGG | 0.998
94 | ATGGAGAAAA | 1.01
95 | GGGGAGCGGT | 0.966
96 | GTGGCTTACA | 1.02
97 | CTCAAGAGA | 1.08
98 | AGGCTTATT | 0.955
99 | TTGGGGACGC | 1.07
100 | GCTCAGTCAT | 1.07
101 | AATCGCCAAG | 0.98
102 | ATGCAGAAGT | 0.998
103 | ATTTTGCGGG | 0.976
104 | TGTTAAGCTT | 1.05
105 | CAACCGCGGG | 1.06
106 | CTAGACGGGG | 0.986
107 | AGCTGACGCC | 1.3
108 | CAAGGTTCC | 1.08
109 | TGGATAACAG | 0.967
110 | GCTAATCAAG | 0.989
111 | TACGTAATTC | 1.8
112 | CAGGCTAGGG | 0.992
113 | CTTACTTTTC | 1.02
114 | GTTTATAGCG | 1.03
115 | ATTCCGTTAG | 1.03

Row | Sequence | switch fluorescence ratio
116 | AACTACATGG | 1.01
117 | CATATCAACC | 1.05
118 | TAATAGGAGA | 0.99
119 | CTCTTGCGAC | 2.05
120 | GATAGGCGTA | 0.971
121 | TAGGTCGTCG | 1
122 | TCCACGGTAG | 1.01
123 | CGGGGACGCC | 1.06
124 | CGATAACGCT | 1.02
125 | AGTCCTATTC | 1.04
126 | TTATTCTGCA | 1.02
127 | CTTCTATTT | 0.972
128 | AAAAGCTAGG | 1.03
129 | ATTGCAGCTT | 0.96
130 | AGCTAATGTA | 1.01
131 | ACTCGGCTGT | 1.52
132 | GATGAAACG | 1.04
133 | TTAGAGCGCT | 1.12
134 | TCTATGAACG | 0.96
135 | ATCGTAATCA | 1.06
136 | TTTTCTGAGA | 0.986
137 | GAAACGCTGA | 1.04
138 | AGCTATACTA | 2.3

Row | Sequence | switch fluorescence ratio
139 | TAAGCACCTG | 1.14
140 | GCTTTCCGCG | 1.11
141 | CAAAGCGAAG | 1.01
142 | CGAGCCCGT | 1.02
143 | GGGGAGTGTG | 1
144 | CCTACGTCGT | 2.38
145 | GGCTGAAGGT | 0.986
146 | TAGAGAACAA | 1.05
147 | TATGGACTGA | 1.03
148 | GTTTCGATAT | 1.02
149 | TGGTCAAGTT | 1.02
150 | CTGCGTCGCG | 1.02
151 | AGCACAAGCT | 1.01
152 | AGCATATCTT | 0.996
153 | TATCTCTGGA | 0.975
154 | ATGGGTTAAA | 1.03
155 | CCAGTTGTGA | 1.02
156 | CAAGCTCTGA | 1.02
157 | CTTTAAGAAC | 0.988
